From PubChem BioAssay AID651820 (National Center for Advancing Translational Sciences (NCATS), 2012)
The campaign covered roughly 340,000 compounds. About 12,000 (3.5%) were called active. The shares of active, inactive and inconclusive entries below differ from those in the screen. Calls come from the whole dose curve; as a rule, active = well fitted inhibition curve with a large enough effect; inconclusive = small, poorly fitted or top-dose-only effect, or another doubt; inactive = no such curve, though single readings can be large or run the other way. Potencies of inconclusive entries are left out as doubtful fits.
% is set by controls: 0 for no effect and ±100 for the full control effect; potency is the fitted concentration of half-maximal effect; tags give direction and shape of the fitted curve.

Experiment: qHTS Assay for Inhibitors of Hepatitis C Virus (HCV)
Details: Huh7.5.1 HCVcc-Cre (HCVcc is cell-culture hepatitis C virus) infection, luciferase reporter, 44 h; activity change, negative = inhibition: at 41.8 µM (top of the series)
Procedure, shortened: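 After 44 h co-culture of compound, cells and HCVcc-Cre (~0.5 moi), substrate is added for 15 min at room temperature and luciferase measured over 15 sec. Cells were seeded at 1,000/well and pre-cultured 4 h.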
For `CN(c1ccc(C(=O)Nc2cccc(O)c2)cc1)S(=O)(=O)c1ccccc1`, the Potency was inconclusive [inhibitor, single point].
For `Cc1cc(NCCCn2ccnc2)n2nc(C)c(-c3ccccc3)c2n1`, the Potency was inconclusive [inhibitor, single point].
For `O=C1OC(Cc2ccccn2)C(O)=C1C1=NCCCCN1` (centres undefined), the “activity change, negative = inhibition” value was inactive: 5.26%.
With `Cc1cccc(-n2ccnc2SCC(=O)Nc2nnc(C)s2)c1` the Potency was inconclusive [inhibitor, single point].
For `COC(=O)[C@@H](NCc1ccc(OC)c(B(O)O)c1)C(C)C`, the Potency was inconclusive [inhibitor, single point].
For `COc1ccccc1OCC(=O)Nc1oc(-c2ccccc2)c(-c2ccccc2)c1C#N`, the Potency was inconclusive [inhibitor, partial curve].
With `COc1ccc(-c2c(C(C)=O)c(C)nc3sc4c(=N)n(N)cnc4c23)cc1` the Potency was inconclusive [inhibitor, partial curve].
For `CCN1CCN(c2ccc(S(=O)(=O)N3CCCCC3)cc2NC(=O)/C=C/c2ccc([N+](=O)[O-])cc2)CC1`, the Potency was inconclusive [inhibitor, partial curve].
In the case of `O=C(NCc1ccco1)c1ccccc1-c1nc(-c2ccccc2)no1`, the Potency is reported as inconclusive [inhibitor, partial curve].
For `CC(C)CNS(=O)(=O)c1ccc(CCC(=O)N2CCC(C(N)=O)CC2)cc1`, the “activity change, negative = inhibition” value was inactive: 4.87%.
For `CSc1nc(N)nc2c1ncn2CC(=O)Nc1ccc(C)c(C)c1`, the Potency was active: 3.55 µM.
With `CCC(C)(C)n1nnnc1CN(Cc1ccco1)Cc1cc2cc3c(cc2[nH]c1=O)OCO3` the “activity change, negative = inhibition” value was inactive: 15%.
For `CNC[C@H](CC1CCCCC1)NC[C@H](CO)NCC1(c2ccccc2)CC1`, the Potency was inconclusive [inhibitor, partial curve].
With `COc1ccc(N2CCN(S(=O)(=O)c3ccc(C(=O)NC4CCCC4)cc3)CC2)cc1` the Potency was inconclusive [inhibitor, single point].
With `N=c1n(CCN2CCCCC2)c2ccccc2n1CC(=O)c1cccs1` the Potency was inconclusive [inhibitor, single point].
With `COc1ccc(CCN2CCCC(CN(C)Cc3cc(OC)ccc3OC)C2)cc1` (centres undefined) the Potency was active: 10 µM.
In the case of `COC(=O)c1[nH]c2ccccc2c1NC(=O)CNC1CCCCC1`, the Potency is reported as inconclusive [inhibitor, single point].
For `COC(=O)c1sc(NC(=O)COC(=O)C2CCC2)c(C(=O)OC)c1C`, the Potency was inconclusive [inhibitor, full curve].
With `CC(=O)c1ccc(N2CCN(C(=O)c3nn(Cc4ccccc4)c(=O)c4ccccc34)CC2)cc1` the Potency was inconclusive [inhibitor, partial curve].
With `O=C(Nc1ccc(F)cc1)C1CCCN(S(=O)(=O)c2cccc3cccnc23)C1` (centres undefined) the Potency was inconclusive [inhibitor, partial curve].
For `C#CCn1c(=NC(=O)c2ccc(Br)s2)sc2cccc(OC)c21`, the “activity change, negative = inhibition” value was inactive: -12.1%.
With `Cc1cc(C)c2nc3nc(C)c(C)cc3c(N)c2c1` the “activity change, negative = inhibition” value was inactive: -29.7%.
With `O=C(CSc1nnc(-c2ccccc2F)o1)N1CCCC1` the “activity change, negative = inhibition” value was inactive: 3.59%.
With `COc1cc(C(=O)Nc2cccc(S(=O)(=O)N3CCCC3)c2)cc(OC)c1C` the Potency was inconclusive [inhibitor, full curve].
In the case of `Cc1cccc(C(=O)NCC(=O)NCCCSc2ccccc2)c1`, the “activity change, negative = inhibition” value is reported as inactive: 13.2%.
With `COc1cc(C)c(C2NC(=O)c3ccccc3N2)cc1C` (centres undefined) the Potency was inconclusive [inhibitor, partial curve].
With `CCOC(=O)c1sc(NC(=O)c2ccoc2C)c(C(N)=O)c1C` the Potency was inconclusive [inhibitor, partial curve].
In the case of `CN1CCN(c2ccc([N+](=O)[O-])c3no[n+]([O-])c23)CC1`, the Potency is reported as active: 2.24 µM.
With `Cc1cc(N2CCN(C)CC2)nc2ccc(NC(=O)CCC(=O)NCCc3ccc(Cl)cc3)cc12` the “activity change, negative = inhibition” value was inactive: 5.08%.
In the case of `O=C(CCCc1nc2ccccc2s1)NNC(=O)CCN1CCN(Cc2ccccc2)CC1`, the “activity change, negative = inhibition” value is reported as inactive: 0.729%.
With `COc1ccc(CCNC(=O)CSc2cn(Cc3cccc(C)c3)c3ccccc23)cc1OC` the Potency was active: 10 µM.
In the case of `COC(=O)c1c(NC(=O)CC2SC(N)=NC2=O)sc(C)c1C` (centres undefined), the “activity change, negative = inhibition” value is reported as inactive: -4.4%.
For `Cc1c(Cl)cccc1NC(=S)NCc1ccc(Cl)cc1`, the “activity change, negative = inhibition” value was inactive: -10.4%.
In the case of `O=C(NCC(c1ccco1)N1CCCC1)c1ccccc1Sc1ccc(C(F)(F)F)cc1[N+](=O)[O-]` (centres undefined), the Potency is reported as inconclusive [inhibitor, full curve, poor fit].
For `CCCCNS(=O)(=O)c1ccc(NC(=O)C2c3ccccc3Oc3ccccc32)cc1`, the Potency was inconclusive [inhibitor, partial curve].
With `Cc1ccc(S(=O)(=O)NCC(=O)OC(C)C(=O)NC(=O)NC2CCCCC2)cc1C` (centres undefined) the “activity change, negative = inhibition” value was inactive: 6.01%.
For `CCc1nnc(NC(=O)COc2ccc3c(c2)OCO3)s1`, the “activity change, negative = inhibition” value was inactive: 15.7%.
For `O=C(OCC(=O)c1c[nH]c2ccccc12)c1cc(Br)ccc1O`, the Potency was inconclusive [inhibitor, partial curve, poor fit].
In the case of `CCC(=O)N1CCN(c2nc(-c3ccccc3)c3c(c2C#N)CCCC3)CC1`, the Potency is reported as active: 10 µM.
For `CCN1CCN(C(=O)C2CCN(Cc3cc(Cl)ccc3O)CC2)CC1`, the Potency was inconclusive [inhibitor, single point].
In the case of `COc1ccc([C@H]2CC(=O)C=C(c3ccc4[nH]ccc4c3)C2)cc1OC`, the Potency is reported as inconclusive [inhibitor, partial curve, poor fit].
In the case of `CCOC(=O)N1CCC(NC(=O)CSCc2nc(-c3ccc(OC)cc3)oc2C)CC1`, the Potency is reported as inconclusive [inhibitor, single point].
For `CCOc1ccc2[nH]c(=O)c(CN(CC3CCCN3CC)C(=O)NCc3ccccc3)cc2c1` (centres undefined), the Potency was inconclusive [inhibitor, single point].
For `Cn1c(SCC2CCCO2)nnc1-c1cccc([N+](=O)[O-])c1` (centres undefined), the “activity change, negative = inhibition” value was inactive: 23.2%.
For `CCOc1ccc(/C=C/C2=Cc3c(sc(NC(=O)CSc4n[nH]c(N)n4)c3C#N)C(C)(C)C2)cc1`, the Potency was inconclusive [inhibitor, single point].
With `COc1cc(NC(=O)CSc2ccc(-c3ccccn3)nn2)cc(OC)c1` the Potency was inconclusive [inhibitor, single point].
In the case of `CCOC(=O)/C(=C/c1ccc(OC(=O)c2ccncc2)cc1)C(C)=O`, the “activity change, negative = inhibition” value is reported as inactive: 9.13%.
With `Cc1cc(-c2[nH]nc3c2C(c2ccsc2)C(C#N)=C(N)O3)c(C)s1` (centres undefined) the Potency was inconclusive [inhibitor, single point].
For `CCOc1ccccc1NC(=O)c1sc2nc(C)nc(N3CCOCC3)c2c1C`, the Potency was inconclusive [inhibitor, single point].
In the case of `CCC(=O)N1CCN(c2ccccc2NC(=O)Cc2ccccc2)CC1`, the Potency is reported as inconclusive [inhibitor, single point].
In the case of `CNC1(C(N)=O)CCN(Cc2ccccc2)CC1`, the “activity change, negative = inhibition” value is reported as inactive: -5.11%.
In the case of `O=C(CSCc1ccccc1Br)N/N=C/c1ccc(OCC(=O)N2CCCCC2)cc1`, the “activity change, negative = inhibition” value is reported as inactive: -5.02%.
For `CCC(C)C1NC(=O)C(NC(=O)C(CC(C)C)N(C)C(=O)C2CCCN2C(=O)C(C)O)C(C)OC(=O)C(Cc2ccc(OC)cc2)N(C)C(=O)C2CCCN2C(=O)C(CC(C)C)NC(=O)[C@H](C)C(=O)[C@H](C(C)C)OC(=O)CC1O` (some centres undefined), the Potency was inconclusive [inhibitor, full curve, poor fit].
With `CC/C(=N\Nc1ccc([N+](=O)[O-])cc1[N+](=O)[O-])c1ccc(O)cc1` the Potency was inconclusive [inhibitor, single point].
In the case of `CN1CN(C)c2ccc([N+](=O)[O-])c3cccc1c23`, the Potency is reported as inconclusive [inhibitor, single point].
In the case of `Cc1ccc(/C=N/NC(=O)c2cccnc2)s1`, the “activity change, negative = inhibition” value is reported as inactive: 15.6%.
In the case of `CC(=O)N1CCc2c(sc(NC(=O)C3COc4ccccc4O3)c2C(N)=O)C1` (centres undefined), the Potency is reported as inconclusive [inhibitor, single point].
With `COC(=O)C1=C(c2ccc(OC(F)(F)F)cc2)C[C@@H]2CC[C@H]1N2C(=O)NCCc1ccccc1` the Potency was inconclusive [inhibitor, single point].
With `COc1ccc(-c2cn(CC3CCCCC3)nn2)cc1` the “activity change, negative = inhibition” value was inactive: 16.6%.
With `CCOC(=O)c1c(CN2CCOCC2)n(C)c2cc(Br)c(O)c(CN(C)C)c12` the Potency was inconclusive [inhibitor, single point].
With `O=C(Nc1ccc2nc(-c3ccc(Br)o3)[nH]c2c1)c1cccs1` the Potency was inconclusive [inhibitor, single point].
In the case of `CCCCN(CCCC)c1ncnc2nc[nH]c12`, the “activity change, negative = inhibition” value is reported as inactive: -19.3%.
With `O=C(Nc1ccccc1)OCCOc1ccccc1` the Potency was active: 12.6 µM.
In the case of `CCCCCCn1c(N2CCCC2)nc2c1c(=O)n(C)c(=O)n2C`, the Potency is reported as inconclusive [inhibitor, single point].
With `Cc1cc(-c2ccc(C(C)C)c(S(=O)(=O)N3CCN(c4ccccn4)CC3)c2)on1` the Potency was active: 11.2 µM.
With `C/C(=N\NC(=O)c1ccc(Cl)c(Cl)c1)c1ccc(Br)s1` the Potency was inconclusive [inhibitor, full curve].
In the case of `COc1ccc(NC(=S)NC(NC(=O)c2ccc(Cl)cc2Cl)C(Cl)(Cl)Cl)c([N+](=O)[O-])c1` (centres undefined), the Potency is reported as inconclusive [inhibitor, single point].
With `CCN(CC)CCN(C(=O)c1cc2ccccc2cc1OC)c1nc2ccc(F)cc2s1` the Potency was inconclusive [inhibitor, single point].
For `COc1cc(OC)c(N(C)S(=O)(=O)c2cccc(C(=O)OCC(=O)c3c[nH]c4ccccc34)c2)cc1Cl`, the Potency was inconclusive [inhibitor, partial curve].
